Reference: article PMC4336329 (PLoS ONE, 2015)
The whole screen tested about 310,000 compounds, of which about 2,200 (0.71%) showed an effect of 50% or more. The effect is printed as a negative number. The list shows a part of the results.

Each compound was assayed against human ether-à-go-go-related gene (hERG) potassium channel (human, UniProt Q12809) (assay: primary screen, population patch clamp on CHO cells stably expressing hERG).
human ether-à-go-go-related gene (hERG) potassium channel, sequence (Q12809 whole entry, looked up): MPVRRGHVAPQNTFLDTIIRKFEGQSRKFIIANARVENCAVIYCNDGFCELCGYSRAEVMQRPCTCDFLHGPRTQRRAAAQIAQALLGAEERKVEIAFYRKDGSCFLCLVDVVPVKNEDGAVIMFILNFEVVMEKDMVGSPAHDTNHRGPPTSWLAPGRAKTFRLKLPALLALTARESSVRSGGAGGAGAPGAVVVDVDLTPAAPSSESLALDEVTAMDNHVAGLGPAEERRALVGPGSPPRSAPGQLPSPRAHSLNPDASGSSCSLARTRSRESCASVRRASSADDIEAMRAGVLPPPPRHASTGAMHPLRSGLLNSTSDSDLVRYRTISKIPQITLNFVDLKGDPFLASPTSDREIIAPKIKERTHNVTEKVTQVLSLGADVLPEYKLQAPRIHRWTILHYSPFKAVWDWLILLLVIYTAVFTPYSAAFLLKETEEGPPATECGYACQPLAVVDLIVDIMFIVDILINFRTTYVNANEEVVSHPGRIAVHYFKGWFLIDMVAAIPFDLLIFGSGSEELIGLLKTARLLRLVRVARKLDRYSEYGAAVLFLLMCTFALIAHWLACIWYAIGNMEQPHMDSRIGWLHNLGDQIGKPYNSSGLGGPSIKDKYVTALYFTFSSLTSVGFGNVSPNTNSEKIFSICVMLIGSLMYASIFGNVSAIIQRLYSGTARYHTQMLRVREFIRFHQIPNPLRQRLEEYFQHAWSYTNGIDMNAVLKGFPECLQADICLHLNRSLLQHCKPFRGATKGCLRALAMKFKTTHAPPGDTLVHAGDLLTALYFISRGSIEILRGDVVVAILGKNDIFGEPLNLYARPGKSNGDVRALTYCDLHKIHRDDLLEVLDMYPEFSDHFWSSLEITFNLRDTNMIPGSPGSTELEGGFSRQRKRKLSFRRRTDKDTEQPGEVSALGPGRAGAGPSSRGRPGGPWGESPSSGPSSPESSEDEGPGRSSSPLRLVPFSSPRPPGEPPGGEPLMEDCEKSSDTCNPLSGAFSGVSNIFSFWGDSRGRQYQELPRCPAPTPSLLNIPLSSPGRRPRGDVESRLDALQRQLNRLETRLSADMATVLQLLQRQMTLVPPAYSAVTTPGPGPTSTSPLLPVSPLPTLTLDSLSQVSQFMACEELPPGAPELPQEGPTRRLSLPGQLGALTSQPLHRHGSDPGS

| SMILES | hERG current change (%, negative = inhibition) at 1uM [%] |
| --- | --- |
| Cc1nc2cc(NC(=O)C3COc4ccccc4O3)ccc2s1 (centres unmarked) | 12.9 |
| C=CCN(c1ccccc1)S(=O)(=O)c1cccc(C(=O)NNC(=O)c2ccncc2)c1 | -5.29 |
| CN(C)C(CNC(=O)c1ccc2ccccc2n1)c1ccccc1 (centres unmarked) | 14.5 |
| N#C/C(C(=O)NCc1ccco1)=C1/SC(Cc2ccc(Cl)cc2)C(=O)N1c1ccccc1 (centres unmarked) | 6.62 |
| Cn1cccc1C(=O)NCCc1ccc(Cl)cc1 | 8.8 |
| CNCCC1Sc2ccccc2Oc2ccccc21.O=C(O)C(=O)O (centres unmarked) | -6.55 |
| CN(C)c1ccc2c(c1)N=C(c1ccco1)OP2(=S)N1CCOCC1 (centres unmarked) | 12.6 |
| COc1cccc(OC)c1OC(=O)/C=C/c1ccc(C)o1 | 10.1 |
| Cc1ccc2c(c1)-c1c(cnn1CC(=O)N1CCCN(Cc3ccccc3F)C1)CO2 | 7.57 |
| O=C(/C=C/c1ccco1)Nc1cccc(-c2nc3ccccc3[nH]2)c1 | -9.64 |
| COc1cccc(C(=O)O/N=C(\N)c2ccncc2)c1OC | 10.3 |
| O=S(=O)(N/N=C/c1c(F)cccc1Cl)c1ccccc1 | 2.89 |
| COc1ccc(NC(=O)CSc2nc3c([nH]c4ccccc43)c(=O)n2C)cc1 | 1.67 |
| O=C(NNc1cccc(Cl)c1)c1cccnc1Oc1ccccc1 | 10.8 |
| c1nc(NCCN2CCOCC2)c2sc3nc(N4CCOCC4)c4c(c3c2n1)CCC4 | -5.55 |
| CCOc1cccc2sc(=NC(=O)c3ccco3)n(CC(=O)OC)c12 | 8.52 |
| Cc1c(CNC(=O)C2CCC(=O)N(CCc3ccccc3)C2)cnn1C (centres unmarked) | 9.31 |
| COc1cccc(CNC(=O)c2ccccc2SCC(=O)N2CCCC2)c1 | -5.92 |
| CCOC(=O)C(c1ccccc1)C(Nc1cc(C(F)(F)F)cc(C(F)(F)F)c1)c1ccccn1 (centres unmarked) | 9.94 |

| SMILES | hERG current change (%, negative = inhibition) at 1uM [%] |
| --- | --- |
| CN1CCN(S(=O)(=O)c2ccc(N(C)Cc3ccc(OC(F)F)cc3)c([N+](=O)[O-])c2)CC1 | -12.6 |
| CN(CC(=O)Nc1cccc(F)c1)C(=O)c1ccncc1 | 3.81 |
| CCOC(=O)N1CCC(NC(=O)C2CCCN(Cc3nc(-c4cccc(C)c4)oc3C)C2)CC1 (centres unmarked) | -24.2 |
| CCOC(=O)c1cc(-c2ccc(OC(F)F)cc2)nc2c1c(=O)[nH]c(=O)n2C | 1.44 |
| CCOc1ccc(-c2c(C(=O)N/N=C/c3ccncc3)nnn2-c2nonc2N)cc1 | 6.39 |
| COc1ccccc1NC(=O)Nc1ccccc1C(=O)NCCCN1CCOCC1 | 10.2 |
| O=C(OCc1ccc(Br)cc1)c1cccc(-c2nnc(-c3ccccc3)o2)c1 | 9.76 |
| Cc1cc(NC(=O)CSc2nc3cc(Cl)ccc3c(=O)n2CC(C)C)no1 | 11.1 |
| CC(C)c1ccccc1NC(=O)Nc1ccc2c(c1)OCO2 | 11.6 |
| O=C(CN1C(=O)NC2(CCc3ccccc3C2)C1=O)NCC(F)(F)F (centres unmarked) | 7.31 |
| O=C1C=CC(=O)N1Nc1ccc(Br)cc1 | 17.7 |
| CCOC(=O)c1nn(-c2ccc(Cl)cc2C)ccc1=O | 5.24 |
| O=c1[nH]cnc(O)c1C(c1cccc([N+](=O)[O-])c1)c1c(O)nc[nH]c1=O | 12.5 |
| Cc1ccccc1CSCCNC(=O)CCSc1ccccc1 | 18.9 |
| CCOc1ccc2nc(NS(=O)(=O)c3cccs3)sc2c1 | 18.3 |
| CCOC(=O)N1CCN(C(=O)c2ccc(S(=O)(=O)Nc3cccc(C(F)(F)F)c3)cc2)CC1 | 6.09 |
| CN(C)CCOc1ccccc1Cc1ccccc1.O=C(O)CC(O)(CC(=O)O)C(=O)O | -19.8 |
| Oc1ccc(-c2c(-c3ccsc3)sc3ccccc23)cc1 | 13 |
| Cc1cc(-c2ccco2)n(-c2ccccc2)n1 | 16 |

| SMILES | hERG current change (%, negative = inhibition) at 1uM [%] |
| --- | --- |
| CC(=C/c1ccccc1)/C=N/NC(=O)c1cnccn1 | 13.3 |
| NC(N)=Nc1cc2ccccc2c2ccccc12 | 7.56 |
| CCCc1cc(=O)oc2c(C)c(OS(C)(=O)=O)ccc12 | -1.33 |
| COC(=O)Cc1c(O)ccn(CCc2ccccc2)c1=O | 16.4 |
| O=C(Cn1cccc1)N1CCN(c2ccc(F)cc2)CC1 | 7.59 |
| CC(C)S(=O)(=O)N1CCCC(C(=O)c2cccc(Cl)c2)C1 (centres unmarked) | 13.6 |
| COc1ccc(NC(=O)Cn2nnc(C(=O)NCc3ccccc3OC)c2N)cc1Cl | 11.2 |
| CC(=O)/C(N=Nc1cc2c(cc1[N+](=O)[O-])OCCO2)=C(\C)O | 16.6 |
| CCC(=O)OC1(C(=O)CCl)[C@@H](C)C[C@H]2[C@@H]3CCC4=CC(=O)C=C[C@]4(C)[C@@]3(F)[C@@H](O)C[C@@]21C (some centres unmarked) | 11.9 |
| COC(=O)c1ccc(/C=C2\SC(=S)N(CCCC(=O)NCCCN3CCOCC3)C2=O)cc1 | 6.04 |
| Cc1ccc(CNc2cc(-c3nn4c(C)nnc4s3)ccc2C)s1 | 15.1 |
| Cc1cc(C)c(NC(=O)CSc2nc3ncc(Br)cc3[nH]2)c(C)c1 | 17.1 |
| O=C(CNC(=O)c1ccc2c(c1)OCCO2)N/N=C/c1ccco1 | 20.1 |
| O=C(NC1CCS(=O)(=O)C1)c1sc2ccccc2c1Cl (centres unmarked) | 8.36 |
| COc1ccccc1NC(=O)NC1(C(=O)N2CCC(O)CC2)CCCCC1 | 10.5 |
| COc1ccc(C(=O)c2coc3ccc(O)c(CN4CCCC4)c23)cc1 | -56.9 |
| NC(=O)NCc1cccnc1 | 9.22 |
| O=C(CNS(=O)(=O)c1ccc(F)c(Cl)c1)NCCc1ccccc1 | 12.2 |
